Reference: the supplement of paper PMC10338343
± gives the standard deviation. This is a selection; strong and weak results do not stand in their true shares.

These sequences were tested on MIWI (PIWIL1) piRISC loaded with L1MC piRNA (30 nt) (assay: pre-steady-state target cleavage rate (min^-1); MIWI and MILI are mouse PIWI proteins and EfPiwi is from a freshwater sponge; tags in brackets are library labels; higher = faster piRNA-guided slicing of the target). Details: guide: L1MC piRNA 5'p-UAACUAAAUACUAUGCAAGCUGUAGGUCCU; auxiliary factor: 500 nM mouse GTSF1.
In short: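 In Cleave-'n-Seq, a transcribed, DNA-blocked target RNA library (0.1 nM) was combined with 1 nM active affinity-purified piRISC bearing one synthetic guide, with or without 500 nM GTSF1 partner protein. Reactions ran in HEPES–potassium acetate buffer at 33 °C for 0–8 or 0–960 min. Uncleaved targets were sequenced and normalised to depth and to weakly complementary targets, three trials were pooled, and k3 was capped at 0.0001 min^-1. The pre-steady-state cleavage rate was obtained by fitting a burst-and-steady-state model.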
With UCCUCCUACAGCUUGCUAAGUAUUUAGUAA the “pre-steady-state target cleavage rate” value was 0.066 ± 0.012.
In the case of UCCUGCUACAGCUUGCUUAGUAUUUACAAA, the “pre-steady-state target cleavage rate” value is reported as 0.0704 ± 0.016.
For UCCUGGAUGUCGUUGUAUAGUAUUUAGUUA, the “pre-steady-state target cleavage rate” value was 0.00797 ± 0.0026.
In the case of AGGACCUACAGCUUGCAUAGAUAUUACAAA, the “pre-steady-state target cleavage rate” value is reported as 0.188 ± 0.066.
UCGACCUACAGCUUGCAUAGUAAAAAGUUA was tested, and the “pre-steady-state target cleavage rate” value was 0.445 ± 0.04.
With UCCUCCUACAGCUUGCAUAGUAUUAUGAAA the “pre-steady-state target cleavage rate” value was 0.287 ± 0.046.
With “UCCUGGAUGUCGUUGCAUAGUAUUUAGUUG [g2:g18:cont:t1G]” the “pre-steady-state target cleavage rate” value was 0.0101 ± 0.0031.
For UCCUGGAUGUCCUUGCAUAGCUAUUUAGUUA, the “pre-steady-state target cleavage rate” value was 0.0054 ± 0.0036.
With UCCUGCUACAGCUUGCGAUAGUAUUUAGUUA the “pre-steady-state target cleavage rate” value was 0.0285 ± 0.0087.
For UCGACCUACAGCUUGCUAUGUAUUUAGUAA, the “pre-steady-state target cleavage rate” value was 0.0653 ± 0.011.
UCCUGGAUGUCGUUGCAUAGUAUCUAGUUA was tested, and the “pre-steady-state target cleavage rate” value was 0.0183 ± 0.0042.
UCGUGCUACAGCUUGCAUAGUAUUUUCAAA was tested, and the “pre-steady-state target cleavage rate” value was 0.255 ± 0.038.
In the case of UCCUGGAACAGCUUGCAUAGUUUUUUCAAA, the “pre-steady-state target cleavage rate” value is reported as 0.0225 ± 0.0083.
With UCCACCUACAGCUUGCAUAGUUAAUAGUAA the “pre-steady-state target cleavage rate” value was 0.131 ± 0.034.
UCCUGGUACAGGUUGCAUAGUAUUUUCAAA was tested, and the “pre-steady-state target cleavage rate” value was 0.144 ± 0.04.
In the case of UCCUGGAUGUGCUUGCAUAGUCAUUUAGUUA, the “pre-steady-state target cleavage rate” value is reported as 0.00413 ± 0.0039.
For “UCCUGGUACAGCUUGCAUAGUUAAAUCAAA [g10:g24:cont:t1A]”, the “pre-steady-state target cleavage rate” value was 0.018 ± 0.0084.
With UCCUGGUACAGCUUGCAUAGUCAUUUAGUUA the “pre-steady-state target cleavage rate” value was 0.0123 ± 0.0065.
For UCCUGCUACAGCUUGCAUAGUAUUAAGAAA, the “pre-steady-state target cleavage rate” value was 0.414 ± 0.085.
In the case of UCCACCUACAGCUUGACAUAGUAUUUAGUUA, the “pre-steady-state target cleavage rate” value is reported as 0.539 ± 0.048.
In the case of UCCUCCUACAGCUUGCAUCAGUAUUUAGUUA, the “pre-steady-state target cleavage rate” value is reported as 0.0862 ± 0.028.
UCCACCUACAGCUUGCAUAGUUAUUAGUAA was tested, and the “pre-steady-state target cleavage rate” value was 0.126 ± 0.026.
For UCCUGCUACAGCUUGCAUACUAUUUAGAAA, the “pre-steady-state target cleavage rate” value was 0.137 ± 0.021.
In the case of UCCUGGAACAGCUUCCAAAGUAUUUAGUUA, the “pre-steady-state target cleavage rate” value is reported as 0.412 ± 0.034.
For UCGACCUACAGCUUGCAUAGUAAAUAGAAA, the “pre-steady-state target cleavage rate” value was 0.265 ± 0.053.
In the case of UCCUGGAACAGCUUGCAUUAGUAUUUAGUUA, the “pre-steady-state target cleavage rate” value is reported as 0.0171 ± 0.0076.
With UCCUGGAACAGCUUGCAAUCUAUUUAGUAA the “pre-steady-state target cleavage rate” value was 0.0175 ± 0.0074.
UCCUGGAUGUCGUCGCAUAGUAUUUAGUUA was tested, and the “pre-steady-state target cleavage rate” value was 0.0192 ± 0.0034.
With UCCUGGAUCACCUUCCAUAGUAUUUAGUUA the “pre-steady-state target cleavage rate” value was 0.00835 ± 0.0045.
With UCCACCAUGAGCUUGCAUAGUAUUUUCAAA the “pre-steady-state target cleavage rate” value was 0.183 ± 0.033.
For AGGACCUACAGCUUGCAUAGAUUUUUCAAA, the “pre-steady-state target cleavage rate” value was 0.605 ± 0.2.
UCCACCUACACCUUGCAUAGUAUUUUCAAA was tested, and the “pre-steady-state target cleavage rate” value was 0.285 ± 0.042.
UCCUGGAACAGCUUGCUAUGUAUUUAGAAA was tested, and the “pre-steady-state target cleavage rate” value was 0.00487 ± 0.0036.
For UCCUGGUACAGCUUCGAUAGUAUUUAGAAA, the “pre-steady-state target cleavage rate” value was 0.0245 ± 0.0077.
UCCUGGAUGAGCAAGCAUAGUAUUUAGUAA was tested, and the “pre-steady-state target cleavage rate” value was 0.0379 ± 0.01.
For UCCUGGAUGUCCUUGCAUAGUAUUUACAUA, the “pre-steady-state target cleavage rate” value was 0.0139 ± 0.0063.
In the case of UCCACCUACAGCUUGCUUAGUAUUUAGAAA, the “pre-steady-state target cleavage rate” value is reported as 0.226 ± 0.037.
For UCCACCUACAGGAAGCAUAGUAUUUUCAAA, the “pre-steady-state target cleavage rate” value was 0.0423 ± 0.01.
With UCCUGGAACAGCUAGCAUAGUAUUUACAAA the “pre-steady-state target cleavage rate” value was 0.143 ± 0.023.
